Tests used:
Conditions in all cases: rank among huAbF46-H4-A1, -A2, -A3, -A5
[1] = system: Akt; assay: Akt phosphorylation by the four affinity-matured antibodies; assay type: cell-based
[2] = biological target: T1, c-Met (Homo sapiens, UniProt P08581); assay: Affinity for c-Met of the four affinity-matured antibodies; assay type: binding; set-up: endogenous in cells; host or cells: SNU638 (A8, A11); MKN45 (A11)
[3] = biological target: T1, c-Met; assay: c-Met degradation degree of the four affinity-matured antibodies; assay type: cell-based; set-up: endogenous in cells; host or cells: SNU638 (A8, A11); MKN45 (A11)

T1 sequence (P08581 25-1390): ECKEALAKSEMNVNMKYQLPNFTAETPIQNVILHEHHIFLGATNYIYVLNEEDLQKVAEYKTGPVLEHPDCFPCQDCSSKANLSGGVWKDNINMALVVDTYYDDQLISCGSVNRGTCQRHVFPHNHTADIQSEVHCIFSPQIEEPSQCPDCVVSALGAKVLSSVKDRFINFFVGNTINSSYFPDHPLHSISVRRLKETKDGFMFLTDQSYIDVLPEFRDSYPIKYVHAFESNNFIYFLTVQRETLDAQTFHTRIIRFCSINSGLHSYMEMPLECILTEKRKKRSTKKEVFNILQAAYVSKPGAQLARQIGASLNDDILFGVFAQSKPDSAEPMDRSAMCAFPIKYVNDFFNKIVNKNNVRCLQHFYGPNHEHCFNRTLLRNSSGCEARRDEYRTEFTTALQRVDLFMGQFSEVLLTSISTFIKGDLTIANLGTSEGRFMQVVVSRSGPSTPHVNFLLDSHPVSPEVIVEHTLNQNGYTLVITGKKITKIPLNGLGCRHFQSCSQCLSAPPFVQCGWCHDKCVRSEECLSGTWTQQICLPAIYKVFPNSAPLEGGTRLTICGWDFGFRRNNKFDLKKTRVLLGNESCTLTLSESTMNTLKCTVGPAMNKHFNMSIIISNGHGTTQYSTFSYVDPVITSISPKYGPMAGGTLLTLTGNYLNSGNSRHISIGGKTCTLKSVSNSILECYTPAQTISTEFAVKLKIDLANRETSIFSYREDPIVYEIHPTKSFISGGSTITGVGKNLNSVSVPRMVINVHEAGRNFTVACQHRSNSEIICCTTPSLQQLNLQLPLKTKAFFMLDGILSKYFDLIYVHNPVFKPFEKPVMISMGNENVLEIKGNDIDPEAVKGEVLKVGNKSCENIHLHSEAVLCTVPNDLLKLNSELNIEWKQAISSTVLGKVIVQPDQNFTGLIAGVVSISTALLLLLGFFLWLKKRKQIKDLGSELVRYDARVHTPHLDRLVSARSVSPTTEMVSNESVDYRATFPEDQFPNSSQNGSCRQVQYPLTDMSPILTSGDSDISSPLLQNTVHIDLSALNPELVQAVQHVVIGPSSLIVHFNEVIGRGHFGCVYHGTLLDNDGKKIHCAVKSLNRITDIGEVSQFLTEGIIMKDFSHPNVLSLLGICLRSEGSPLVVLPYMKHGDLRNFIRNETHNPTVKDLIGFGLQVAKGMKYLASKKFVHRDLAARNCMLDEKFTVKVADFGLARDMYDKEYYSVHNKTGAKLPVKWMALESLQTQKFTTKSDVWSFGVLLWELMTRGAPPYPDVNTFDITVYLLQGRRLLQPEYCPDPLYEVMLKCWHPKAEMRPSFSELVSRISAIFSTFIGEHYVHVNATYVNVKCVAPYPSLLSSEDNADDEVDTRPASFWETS

affinity for c-Met among the four selected antibodies [2]: highest
c-Met degradation degree among the four selected antibodies [3]: lowest
B1: huAbF46-H4-A1: affinity-matured humanized anti-c-Met antibody, L3-1 origin (antibody)
heavy: EVQLVESGGGLVQPGGSLRLSCAASGFTFTDYYMSWVRQAPGKGLEWLGFIRNKANGYTTEYSASVKGRFTISRDNSKNTLYLQMNSLRAEDTAVYYCARDNWFAYWGQGTLVTVSSASTKGPSVFPLAPSSKSTSGGTAALGCLVKDYFPEPVTVSWNSGALTSGVHTFPAVLQSSGLYSLSSVVTVPSSSLGTQTYICNVNHKPSNTKVDKKVEPKSCDCH[human IgG1 Fc not written out]
light: DIQMTQSPSSLSASVGDRVTITCKSSQSLLASGNQNNYLAWHQQKPGKAPKMLIIWASTRVSGVPSRFSGSGSGTDFTLTISSLQPEDFATYYCQQSYSRPYTFGQGTKVEIKRTVAAPSVFIFPPSDEQLKSGTASVVCLLNNFYPREAKVQWKVDNALQSGNSQESVTEQDSKDSTYSLSSTLTLSKADYEKHKVYACEVTHQGLSSPVTKSFNRGEC
Akt phosphorylation among the four selected antibodies [1]: lowest
